Here are results for 28 molecules from the antibiotic and cytotoxicity screens of Wong et al. (2023).

One test deals with HSkMC. Put plainly: cytotoxicity call (relative viability < 0.9). The conditions noted are these: 10 µM.
The next test concerns HepG2. The experiment in a line: cytotoxicity call (relative viability < 0.9). The conditions noted are these: 10 µM.
The test system of a further test is S. aureus RN4220. The experiment in a line: growth inhibition call (relative growth <= 0.2). The following applies: 50 µM.

The other results are listed elsewhere or left out.

Regarding `C[C@H](CO)N1C[C@H](C)[C@H](CN(C)C(=O)c2cnccn2)Oc2ncc(C#CCC3CCCC3)cc2C1=O`, the cytotoxicity call with HSkMC and in the test on HepG2 was “inactive” throughout. In addition, the growth inhibition call with S. aureus RN4220 is “inactive”.
For `C/N=C1/S[C@@H]2CS(=O)(=O)C[C@@H]2N1C`, the cytotoxicity call in the test on HSkMC and in the test on HepG2 was “inactive” throughout. In addition, the growth inhibition call in the test on S. aureus RN4220 was “inactive”.
In the case of `C[C@@H]1CCCCO[C@@H](CN(C)C(=O)Nc2cccc3ccccc23)[C@H](C)CN([C@@H](C)CO)C(=O)c2cc(NC(=O)CCCN(C)C)ccc2O1`, the cytotoxicity call with HSkMC and in the test with HepG2 was “inactive” each time. Also, in the test on S. aureus RN4220, the growth inhibition call is “inactive”.
Turning to `CN(C)Cc1cn(CC[C@H]2CC[C@H](NC(=O)Cc3cccnc3)[C@@H](CO)O2)nn1`, the cytotoxicity call in the test with HSkMC and with HepG2 was “inactive” each time. Besides, the growth inhibition call with S. aureus RN4220 is “inactive”.
`Cc1nnn(C23C[C@@H]4C[C@@H](CC(NC(=O)[C@H](N)CC(C)C)(C4)C2)C3)n1`: the cytotoxicity call in the test with HSkMC and with HepG2 was “inactive” each time. Further, the growth inhibition call with S. aureus RN4220 is “inactive”.
Consider `COc1ccc2c(c1)OCC(Cc1ccc(OC)c(OC)c1)C2=O` (centres undefined), for which the cytotoxicity call in the test with HSkMC was “inactive”. Further, in the test with HepG2, the cytotoxicity call is “active”. The growth inhibition call with S. aureus RN4220 was “inactive”.
As for `O=C(C[C@@H]1C[C@H]2c3cc(NS(=O)(=O)c4ccc(F)cc4)ccc3O[C@H]2[C@@H](CO)O1)NCc1ccncc1`, the cytotoxicity call with HSkMC and in the test on HepG2 was “inactive” each time. The growth inhibition call in the test on S. aureus RN4220 was “inactive”.
Turning to `Cc1noc(C)c1S(=O)(=O)N(C)C[C@H]1Oc2ccc(NS(=O)(=O)c3cn(C)cn3)cc2CC(=O)N([C@@H](C)CO)C[C@@H]1C`, the cytotoxicity call in the test with HSkMC and in the test on HepG2 was “inactive” in each case. Further, the growth inhibition call with S. aureus RN4220 is “inactive”.
In the case of `C[C@H](O)C#Cc1cnc2c(c1)C(=O)N([C@H](C)CO)C[C@H](C)[C@@H](CN(C)Cc1cncnc1)O2`, the cytotoxicity call in the test with HSkMC and in the test on HepG2 was “inactive” throughout. Also, the growth inhibition call in the test on S. aureus RN4220 was “inactive”.
Turning to `C[C@@H]1CN([C@@H](C)CO)C(=O)c2cccc(NS(=O)(=O)c3ccccc3)c2O[C@H]1CN(C)CC1CC1`, the cytotoxicity call in the test with HSkMC and in the test with HepG2 was “inactive” each time. Further, the growth inhibition call in the test with S. aureus RN4220 is “inactive”.
Regarding `C[C@H](CO)N1C[C@H](C)[C@@H](CN(C)Cc2ccc(Cl)c(Cl)c2)Oc2ccc(NC(=O)Cc3ccccc3)cc2C1=O`, the cytotoxicity call with HSkMC and in the test on HepG2 was “inactive” throughout. In addition, the growth inhibition call in the test on S. aureus RN4220 is “inactive”.
Regarding `C[C@H](CO)N1C[C@H](C)[C@H](CN(C)C(=O)Nc2cccc3ccccc23)Oc2c(NS(=O)(=O)c3cccs3)cccc2C1=O`, the cytotoxicity call in the test with HSkMC and in the test with HepG2 was “inactive” in each case. The growth inhibition call in the test with S. aureus RN4220 was “inactive”.
On to `C[C@@H]1CN([C@H](C)CO)C(=O)c2cc(NS(=O)(=O)c3ccc(Cl)cc3)ccc2O[C@H]1CN(C)Cc1ccc(-c2ccccc2)cc1`, for which the cytotoxicity call in the test on HSkMC is “active”. Besides, in the test with HepG2, the cytotoxicity call is “inactive”. Also, the growth inhibition call in the test on S. aureus RN4220 is “inactive”.
Turning to `CCCN(C)C[C@H]1OCCCC[C@@H](C)Oc2ccc(NC(=O)Nc3ccc(F)cc3)cc2C(=O)N([C@@H](C)CO)C[C@H]1C`, the cytotoxicity call with HSkMC and in the test on HepG2 was “inactive” each time. In addition, in the test with S. aureus RN4220, the growth inhibition call was “active”.
Regarding `C[C@H](CO)N1C[C@H](C)[C@H](CN(C)S(=O)(=O)c2ccc(F)cc2)Oc2c(NS(=O)(=O)c3cn(C)cn3)cccc2C1=O`, the cytotoxicity call with HSkMC and in the test on HepG2 was “inactive” in each case. Besides, in the test on S. aureus RN4220, the growth inhibition call is “inactive”.
As to `O=C1NC(=O)[C@@]2(CCOc3ccc(F)cc32)N1`, the cytotoxicity call in the test on HSkMC and with HepG2 was “inactive” in each case. Further, the growth inhibition call in the test on S. aureus RN4220 was “inactive”.
As for `C[C@@H]1CN([C@H](C)CO)C(=O)Cc2cc(NC(=O)Nc3ccc4c(c3)OCO4)ccc2O[C@@H]1CN(C)Cc1ccc(-c2ccccc2)cc1`, the cytotoxicity call in the test on HSkMC and in the test on HepG2 was “active” throughout. The growth inhibition call with S. aureus RN4220 was “inactive”.
`COc1ccc(NC(=O)N(C)C[C@H]2Oc3c(NC(=O)c4ccc(-c5nccs5)cc4)cccc3C(=O)N([C@H](C)CO)C[C@H]2C)cc1`: the cytotoxicity call in the test with HSkMC and in the test on HepG2 was “inactive” each time. Besides, the growth inhibition call in the test on S. aureus RN4220 is “inactive”.
Consider `C[C@@H]1CCCCO[C@@H](CN(C)CC2CC2)[C@H](C)CN([C@@H](C)CO)C(=O)c2cc(NC(=O)CCC(F)(F)F)ccc2O1`, for which the cytotoxicity call with HSkMC and in the test with HepG2 was “inactive” in each case. Also, the growth inhibition call in the test on S. aureus RN4220 was “inactive”.
In the case of `Cc1cc(C(=O)O)cc(S(N)(=O)=O)c1`, in the test with HSkMC, the cytotoxicity call was “inactive”. The cytotoxicity call in the test on HepG2 was “active”. Moreover, the growth inhibition call in the test with S. aureus RN4220 was “inactive”.
For the molecule `COc1ccc(NC(=O)Nc2cccc3c2O[C@H](CN(C)Cc2ccc(C(=O)Nc4ccccc4N)cc2)[C@@H](C)CN([C@H](C)CO)C3=O)cc1`, the cytotoxicity call in the test on HSkMC and with HepG2 was “inactive” throughout. In addition, the growth inhibition call with S. aureus RN4220 is “inactive”.
As for `C[C@@H]1CN([C@@H](C)CO)C(=O)c2cccc(NC(=O)Nc3ccc4c(c3)OCO4)c2O[C@H]1CN(C)Cc1ccc(Cl)c(Cl)c1`, the cytotoxicity call with HSkMC and in the test on HepG2 was “inactive” throughout. For the same molecule, in the test on S. aureus RN4220, the growth inhibition call is “inactive”.
Regarding `CCn1c2c(ccc1=O)C[C@H](N)CC2`, the cytotoxicity call in the test with HSkMC and in the test on HepG2 was “inactive” throughout. Moreover, the growth inhibition call in the test with S. aureus RN4220 is “inactive”.
Take `COc1ccc(CN(C)C[C@@H]2OCCCC[C@H](C)Oc3ccc(NC(=O)C4CCCCC4)cc3C(=O)N([C@@H](C)CO)C[C@@H]2C)cc1`: the cytotoxicity call in the test with HSkMC and in the test with HepG2 was “inactive” in each case. In addition, the growth inhibition call in the test with S. aureus RN4220 was “inactive”.
Take `Cn1cnc(S(=O)(=O)N2C[C@H](O)COC[C@H]3O[C@@H](CC(=O)N4CCN(c5ccccc5)CC4)CC[C@@H]32)c1`: the cytotoxicity call in the test on HSkMC (human skeletal muscle cells) and in the test with HepG2 was “inactive” in each case. In the test with S. aureus RN4220, the growth inhibition call is “inactive”.
As for `C[C@@H]1CN([C@@H](C)CO)C(=O)Cc2cc(NS(C)(=O)=O)ccc2O[C@H]1CN(C)S(=O)(=O)c1ccc(Cl)cc1`, the cytotoxicity call in the test with HSkMC and in the test on HepG2 was “inactive” in each case. For the same molecule, the growth inhibition call with S. aureus RN4220 is “inactive”.
Take `CN1CCN(C(=O)C[C@H]2CC[C@@H]3[C@H](COC[C@H](O)CN3Cc3ccc4c(c3)OCO4)O2)CC1`: the cytotoxicity call in the test with HSkMC and with HepG2 was “inactive” in each case. The growth inhibition call in the test with S. aureus RN4220 was “inactive”.
Consider `COc1ccc(S(=O)(=O)Nc2ccc3c(c2)CC(=O)N([C@@H](C)CO)C[C@@H](C)[C@H](CN(C)C)O3)cc1`, for which the cytotoxicity call in the test with HSkMC and in the test on HepG2 was “inactive” throughout. Moreover, the growth inhibition call in the test with S. aureus RN4220 was “inactive”.
